# Laboratory results published in the supplement of paper PMC5740061.
# Some of the results follow. Single values are uncertain, as repeats are few or missing.
# B1: TB1G1 variant; numbered along this chain (parent)
# chain: PDEYIERAKECCKKGDIQCCLRYFEESGDPNVMLICLFCP
# Variants of: B1
# Test: TEAD binding enrichment after two sorts vs input, relative to TB1G1 (log2 fold-change); higher = improved TEAD binding
# Conditions: with TEAD1 YAP-binding domain (194-411), TEAD concentration: 20 nM, staining: monovalent 2-step
row,Variant,TEAD binding enrichment (log2)
1,I5A,-1.2
2,P1D,-0.648
3,K9F,-3.52
4,R7Y,-1.01
5,E6Y,-2.33
6,I5S,-2.04
7,D2V,-2.34
8,Y4E,-6.52
9,E3V,-1.4
10,E6Q,-2.41
11,Y4R,-0.939
12,I5K,-1.5
13,P1I,-2.27
14,K9L,-11.2
15,A8V,-4.43
16,I5F,-8.36
17,R7H,-0.322
18,P1W,-9.1
19,R7A,0.283
20,P1Y,-3.33
21,I5H,-2.99
22,A8E,-2.66
23,A8H,-7.27
24,D2P,-2.11

row,Variant,TEAD binding enrichment (log2)
1,E6M,-2.04
2,Y4D,-1.79
3,A8G,-4.11
4,Y4W,-2.47
5,D2I,-0.698
6,I5N,-1.34
7,E6T,-0.921
8,E3G,-0.623
9,A8S,-2.79
10,Y4M,-0.684
11,D2W,-2.95
12,R7S,0.311
13,Y4G,-2.21
14,E6G,-1.15
15,K9W,-4.41
16,A8P,-4.7
17,Y4H,-1.9
18,A8M,-10.1
19,D2S,-1.01
20,E6D,-0.602
21,P1A,0.364
22,E3Q,-1.35
23,E3A,-2.02
24,Y4S,-0.738

row,Variant,TEAD binding enrichment (log2)
1,D2F,-3.41
2,R7G,1.31
3,E3I,-0.256
4,I5Y,-10.9
5,P1T,-0.568
6,A8W,-5.46
7,A8F,-4.33
8,M33I,-3.17
9,K9Y,-4.96
10,E3N,0.579
11,P1N,-0.491
12,A8R,-5.84
13,I5R,-3.27
14,A8I,-8.31
15,P1K,-0.294
16,M33S,-10.6
17,Y4N,0.0419
18,E6F,-1.96
19,P1Q,-0.836
20,Y4Q,0.291
21,E6H,-1.57
22,E6K,-1.13
23,I5M,-1.87
24,Y4F,0.668

row,Variant,TEAD binding enrichment (log2)
1,A8N,-9.2
2,R7W,-1.28
3,D2G,-0.319
4,K9M,-3.56
5,E6P,-2.84
6,R7M,-1.06
7,Y4P,1.02
8,R7E,-0.163
9,E6N,-0.816
10,I5D,-3.47
11,P1E,1.12
12,Y4V,-0.749
13,E3M,2.57
14,D2R,-7.12
15,P1H,-0.884
16,I5T,-1.77
17,P1L,-2.9
18,K9P,-4.5
19,I5E,-1.23
20,R7Q,-0.484
21,K9Q,1.1
22,I5V,-0.274
23,E6V,-1.55
24,D2Y,-1.63

row,Variant,TEAD binding enrichment (log2)
1,D2T,-0.52
2,K9H,-1.5
3,E3H,-0.307
4,K9D,-0.576
5,E3K,-0.5
6,I5W,-7.46
7,R7I,-3.98
8,E6L,-0.404
9,A8L,-9.93
10,R7F,-1.04
11,E6W,-1.53
12,E3P,-0.402
13,P1M,-1.02
14,E3L,0.325
15,I5L,-0.381
16,Y4I,-0.405
17,Y4T,-0.869
18,I5P,-0.431
19,K9T,2.68
20,E3T,1.19
21,D2H,-1.05
22,K9R,-1.3
23,A8D,-4.17
24,P1G,1.7

row,Variant,TEAD binding enrichment (log2)
1,E3S,-0.407
2,R7P,-2.49
3,K9S,-0.907
4,E3F,0.318
5,D2M,-1.86
6,K9A,-1.27
7,E6A,-0.676
8,A8K,-4.73
9,E3D,0.801
10,R7N,0.343
11,E6R,-1.78
12,E3W,-1.4
13,E3R,-1.81
14,R7D,-2.25
15,D2Q,-0.201
16,D2N,-0.157
17,R7K,0.473
18,P1V,-0.595
19,R7T,-4.07
20,A8Q,-6
21,A8T,-3.84
22,I5Q,-1.23
23,A8Y,-3.35
24,E3Y,-0.357

row,Variant,TEAD binding enrichment (log2)
1,D2L,-3.53
2,P1F,-1.3
3,Y4A,0.259
4,P1R,-2.1
5,K9V,-8.88
6,K9N,3.31
7,R7V,-2.31
8,D2E,1.16
9,E6S,-1.09
10,K9I,-3.03
11,P1S,0.135
12,I5G,-3.97
13,Y4K,-1.58
14,E6I,-1.56
15,D2A,-1.43
16,R7L,-0.388
17,D2K,-1.07
18,K9G,-0.48
19,Y4L,-1.81
20,K9E,3.95
